Out of some 220,000 compounds screened, about 5,700 (2.6%) were called active. The inconclusive results got no clear call from the source; some entries with a clear call stand among them for comparison. Calls come from the whole dose curve; as a rule, active = well fitted inhibition curve with a large enough effect; inconclusive = small, poorly fitted or top-dose-only effect; inactive = no such curve, though single readings can be large or run the other way. A potency beside an inconclusive call is a rough fit, not a confirmed value.
biological target: Lysine-specific demethylase 5B (Homo sapiens) (UniProt Q9UGL1); assay: Primary screen for KDM5B Histone Demethylases FDH-coupled qHTS; settings: FDH-coupled NADH fluorescence (FDH is formaldehyde dehydrogenase); activity change, negative = inhibition: at 57.7 µM (top of the series) unless noted; note: nearly all actives have a fitted effect of over 70% in size; for activity change, negative = inhibition: 0% is about no effect
UniProt Q9UGL1, sequence (Q9UGL1 whole entry, looked up): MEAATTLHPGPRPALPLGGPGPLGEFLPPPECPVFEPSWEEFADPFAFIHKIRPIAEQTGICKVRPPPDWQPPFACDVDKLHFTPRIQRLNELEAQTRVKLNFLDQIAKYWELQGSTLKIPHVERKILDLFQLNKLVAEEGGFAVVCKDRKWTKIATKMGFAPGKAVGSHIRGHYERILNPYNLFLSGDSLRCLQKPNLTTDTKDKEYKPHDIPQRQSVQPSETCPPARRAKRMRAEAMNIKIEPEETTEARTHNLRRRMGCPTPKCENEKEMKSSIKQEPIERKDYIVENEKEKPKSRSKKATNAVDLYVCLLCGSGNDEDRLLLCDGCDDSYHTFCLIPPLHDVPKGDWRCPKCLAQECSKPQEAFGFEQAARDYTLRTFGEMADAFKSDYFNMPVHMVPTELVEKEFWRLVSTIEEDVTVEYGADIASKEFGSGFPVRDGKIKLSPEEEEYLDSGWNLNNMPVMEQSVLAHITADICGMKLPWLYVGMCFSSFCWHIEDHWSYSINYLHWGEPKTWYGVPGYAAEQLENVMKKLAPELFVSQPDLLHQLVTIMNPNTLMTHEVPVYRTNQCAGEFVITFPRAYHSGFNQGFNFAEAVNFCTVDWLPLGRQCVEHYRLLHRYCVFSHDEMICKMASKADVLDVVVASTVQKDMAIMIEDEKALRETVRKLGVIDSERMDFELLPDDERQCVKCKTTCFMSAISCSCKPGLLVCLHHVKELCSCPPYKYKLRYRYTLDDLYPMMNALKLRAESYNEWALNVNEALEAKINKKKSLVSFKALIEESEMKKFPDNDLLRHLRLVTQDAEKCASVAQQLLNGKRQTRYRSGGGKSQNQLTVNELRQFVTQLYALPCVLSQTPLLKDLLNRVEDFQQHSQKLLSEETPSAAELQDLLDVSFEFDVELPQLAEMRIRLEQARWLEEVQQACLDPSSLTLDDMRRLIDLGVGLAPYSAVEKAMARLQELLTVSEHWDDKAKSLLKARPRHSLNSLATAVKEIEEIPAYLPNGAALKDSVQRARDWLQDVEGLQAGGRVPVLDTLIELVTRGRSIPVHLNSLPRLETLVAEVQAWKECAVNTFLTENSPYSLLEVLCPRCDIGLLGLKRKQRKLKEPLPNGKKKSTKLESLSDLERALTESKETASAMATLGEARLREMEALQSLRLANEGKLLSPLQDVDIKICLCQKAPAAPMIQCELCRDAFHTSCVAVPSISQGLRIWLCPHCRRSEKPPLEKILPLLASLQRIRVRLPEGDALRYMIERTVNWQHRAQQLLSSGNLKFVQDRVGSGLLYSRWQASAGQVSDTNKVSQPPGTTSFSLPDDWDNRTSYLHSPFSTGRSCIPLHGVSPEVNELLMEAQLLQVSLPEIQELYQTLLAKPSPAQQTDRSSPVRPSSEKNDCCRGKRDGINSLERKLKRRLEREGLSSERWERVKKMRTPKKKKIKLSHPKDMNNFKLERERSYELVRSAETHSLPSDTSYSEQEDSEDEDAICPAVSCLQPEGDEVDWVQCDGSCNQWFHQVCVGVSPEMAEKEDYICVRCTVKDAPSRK
Procedure, shortened: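 KDM5BΔAP (200 nM final) in 50 mM HEPES pH 7.5, 0.01% Tween-20 was preincubated 10 min at RT with compound over a concentration range. Substrate mix (H3K4me3 12.5 µM, α-KG 25 µM, Fe²⁺, ascorbate, NAD⁺, FDH) was added, and NADH fluorescence change over 30 min gave dose-response curves.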
Potency is the fitted concentration of half-maximal effect; tags give direction and shape of the fitted curve.

| Structure (SMILES) | Potency | activity change, negative = inhibition |
| --- | --- | --- |
| Cc1ccc(-c2csc(-c3ccc(O)cc3)n2)cc1 | inconclusive: 39.8 µM [inhibitor, single point] |  |
| COCCn1c(C)cc(O)c(C(c2ccc(Cl)cc2)N2CCCCC2)c1=O (stereo unspecified) | inconclusive: 31.6 µM [inhibitor, single point] |  |
| Cc1ccc(C)c(-c2cc3c(=O)n(CCNC(=O)c4ccc(F)cc4Cl)ccn3n2)c1 | inconclusive: 31.6 µM [inhibitor, single point] |  |
| COc1cccc(CNC(=O)c2ncoc2-c2cccc(C)c2)c1OC | inconclusive: 25.1 µM [inhibitor, single point] |  |
| CNC(=O)c1ccc(-c2nc(CN3CCN(C(=O)Nc4cccc(OC)c4)CC3)c(C)o2)cc1 | inactive |  |
| COc1ccc(C2C(=O)N(C3CCCCC3)CC(=O)N2C2CCCCC2)cc1 (stereo unspecified) | inconclusive: 10 µM [inhibitor, partial curve, poor fit] |  |
| CC1CCCCN1CCCNC(=O)Cn1ncc2c3ccccc3n(Cc3ccccc3F)c2c1=O (stereo unspecified) | inconclusive: 15.8 µM [inhibitor, single point] |  |
| COc1cc(OC)cc(C(=O)Nc2ccc3oc(=O)ccc3c2)c1 | inactive |  |
| COc1ccc(-c2nn(-c3ccccc3C)cc2CN2CCCN(C)CC2)cc1F | inconclusive: 11.2 µM [inhibitor, partial curve] |  |
| O=C1NCc2ccccc2CC12CCCN2Cc1ccc2ccccc2n1 (stereo unspecified) | inconclusive: 79.4 µM [inhibitor, partial curve, poor fit] |  |
| Cc1cc(C)cc(NC(=O)CCN2C(=O)c3ccccc3Sc3ncccc32)c1 | inconclusive: 12.6 µM [inhibitor, partial curve, poor fit] |  |
| CSc1ccc(CNC(=O)Cn2ccc3cc(S(=O)(=O)N4CCCC4)ccc32)cc1 | inconclusive: 44.7 µM [inhibitor, single point] |  |
| CC(OC(=O)C1=CN2CCS(=O)(=O)N=C2C=C1)C(=O)Nc1cccc(C(F)(F)F)c1 (stereo unspecified) | inconclusive: 35.5 µM [inhibitor, partial curve, poor fit] |  |
| COCCNC(=O)C[C@@H]1C[C@H]2O[C@H](CNCc3ncccc3C)[C@@H](O)[C@H]2O1 | inconclusive: 7.08 µM [inhibitor, partial curve] |  |
| O=C(c1ccccc1Cl)N1CCC2(CC1)CCN(Cc1cccs1)c1ccccc1O2 | inconclusive: 8.91 µM [inhibitor, partial curve] |  |
| O=c1[nH]c2ccccc2cc1CN(CC1CCCO1)S(=O)(=O)c1ccccc1 (stereo unspecified) | inconclusive: 22.4 µM [inhibitor, partial curve, poor fit] |  |
| O=C(O)COc1ccc(-c2nccc3c2C(=O)N(Cc2cccc(C(F)(F)F)c2)CC(COc2cccnc2)O3)cc1 (stereo unspecified) | inconclusive: 17.8 µM [inhibitor, partial curve] |  |
| CN(C)c1ccc(C(=O)NCc2ccc3c(c2)CCN3C(=O)c2ccccc2)cc1 | inconclusive: 1.26 µM [inhibitor, full curve, poor fit] |  |
| CCCCn1c(CN2CCN(C(=O)c3ccco3)CC2)nc2c1c(=O)[nH]c(=O)n2Cc1ccccc1 | inactive |  |
| O=C(Cc1c[nH]c2ncc(-c3ccsc3)cc12)NCc1cccnc1 | inconclusive: 35.5 µM [inhibitor, partial curve, poor fit] |  |
| Cc1noc(C2CCCCN2C(=O)c2ccc(-c3ccccc3Cl)o2)n1 (stereo unspecified) | inconclusive: 31.6 µM [inhibitor, single point] |  |

| Structure (SMILES) | Potency | activity change, negative = inhibition |
| --- | --- | --- |
| CCOC(=O)C1CCCCN1C(=O)c1c(C)oc2c1CN(Cc1cccc(F)c1)CC2 (stereo unspecified) | inconclusive: 28.2 µM [inhibitor, partial curve, poor fit] |  |
| COc1cccc(NC(=O)Cn2c(=O)n(Cc3ccco3)c(=O)c3cc(OC)c(OC)cc32)c1 | inconclusive: 6.31 µM [inhibitor, partial curve, poor fit] |  |
| COc1ccc(CN2CC(COc3ccccc3)C3(C2)CN(c2ccccc2)C3)cc1O (stereo unspecified) | active: 31.6 µM |  |
| Cc1ccccc1NC(=O)Cn1ccn2nc3c(c2c1=O)CCCCC3 | inconclusive: 14.1 µM [inhibitor, partial curve] |  |
| CCn1nccc1C(=O)N1CCCC(n2cc(-c3nc(-c4ccccc4)no3)nn2)C1 (stereo unspecified) | inactive |  |
| Cc1ccc(NCc2cccn2-c2nnc(N3CCC(C(=O)NCc4ccc(F)cc4)CC3)s2)cc1 | inconclusive: 6.31 µM [inhibitor, partial curve, poor fit] |  |
| Cc1cc(/C=C/C(=O)c2ccccc2F)cc(C)c1O | inconclusive: 1.78 µM [inhibitor, partial curve, poor fit] |  |
| Cc1ccn2c(Nc3ccccc3C)c(-c3ccccc3)nc2c1 | inconclusive: 35.5 µM [inhibitor, partial curve, poor fit] |  |
| COc1ccc(CCN2CC(C(=O)NCCc3ccccn3)CCC2=O)cc1 (stereo unspecified) | inconclusive: 25.1 µM [inhibitor, partial curve, poor fit] |  |
| CC(=O)Nc1ccccc1OCc1cc(C)cc(C)c1 | inactive |  |
| N#C/C(=C/c1ccc(/C=C(\C#N)C(N)=O)cc1)C(N)=O | inconclusive: 14.1 µM [inhibitor, partial curve, poor fit] |  |
| Cc1ccc(CN2CCc3oc(C)c(C(=O)N(C)CC(=O)N4CCCC4)c3C2)cc1 | inconclusive: 31.6 µM [inhibitor, single point] |  |
| COc1ccc(C2=Nn3c(nnc3-c3cccc(F)c3)SC2)cc1 | inactive |  |
| O=C(Nc1nc2ccc(OC(F)F)cc2s1)c1ccccc1Cl | inconclusive: 25.1 µM [inhibitor, single point] |  |
| Cc1ccc(OCc2cc(=O)n3ccsc3n2)c(NC(=O)c2ccco2)c1 | inconclusive: 28.2 µM [inhibitor, partial curve, poor fit] |  |
| COCCN(C(=O)c1oc2ccccc2c1COC)c1c(N)n(CC(C)C)c(=O)[nH]c1=O | inconclusive: 31.6 µM [inhibitor, single point] |  |
| CS(=O)(=O)NC(=O)c1ccc(Br)cc1F | inactive |  |
| COC(=O)C1=C(C)OC(N)=C(C#N)C1c1ccc2c(c1)OCO2 (stereo unspecified) | inconclusive: 31.6 µM [inhibitor, partial curve, poor fit] |  |
| Cc1ccccc1Nc1c(-c2ccc(N3CCOCC3)cc2)nc2ccc(Cl)cn12 | inconclusive: 12.6 µM [inhibitor, partial curve, poor fit] |  |
| COc1ccc(CN2CCc3nc(C(=O)Nc4ccc(Cl)cc4)oc3CC2)cn1 | inconclusive: 39.8 µM [inhibitor, partial curve, poor fit] |  |
| COc1ccccc1C(=O)OC1CCCN(C)C1 (stereo unspecified) | inconclusive: 17.8 µM [inhibitor, single point] |  |

| Structure (SMILES) | Potency | activity change, negative = inhibition |
| --- | --- | --- |
| Cc1cccc(NC(=O)c2c(N)sc3c2CCC(C)C3)c1 (stereo unspecified) | inconclusive: 25.1 µM [inhibitor, partial curve, poor fit] |  |
| O=C(Nc1ccc(S(=O)(=O)N2CCCCCC2)cc1)c1csnn1 | inactive |  |
| CC(C)N1C(=O)CO[C@H]2CCN(CCCc3ccccc3)CC[C@@H]21 | inconclusive: 28.2 µM [inhibitor, partial curve] |  |
| Cc1cc(O)c(C(=O)/C=C/c2cccc([N+](=O)[O-])c2)c(=O)o1 | inconclusive: 17.8 µM [inhibitor, single point] |  |
| Fc1cc(F)cc(CNc2ncncc2-c2nc(-c3ccccc3)no2)c1 | inconclusive: 5.62 µM [inhibitor, single point] |  |
| Cc1ccc(C(=O)Nc2cccc3c2CCCC3)cc1C | inconclusive: 35.5 µM [inhibitor, single point] |  |
| CCOc1ccc(S(=O)(=O)NCC(c2ccc(N(C)C)cc2)N2CCc3ccccc32)cc1 (stereo unspecified) | inconclusive: 31.6 µM [inhibitor, partial curve, poor fit] |  |
| COC(=O)CSc1ccc2nnc(CCNS(=O)(=O)c3ccccc3)n2n1 | inconclusive: 17.8 µM [inhibitor, partial curve, poor fit] |  |
| O=C(Nc1ccc(Cl)cc1)C(Cl)C(=O)c1ccccc1 (stereo unspecified) | inconclusive: 3.16 µM [inhibitor, full curve, poor fit] |  |
| Cc1cccc(N2CCN(c3ncnc4onc(C)c34)CC2C)c1 (stereo unspecified) |  | inconclusive: -36.8% [inhibitor] |
| CCc1cccc(C)c1NC(=O)c1cn2c3c(ccc(Cl)c3c1=O)OC(C)C2 (stereo unspecified) | inconclusive: 15.8 µM [inhibitor, partial curve, poor fit] |  |
| CCOC(=O)C1=C(C)NC(=O)NC1c1cn(-c2ccccc2)nc1-c1ccc(OC(C)C)c(C)c1 (stereo unspecified) | inconclusive: 22.4 µM [inhibitor, single point] |  |
| COc1ccc(-c2nccc3c(=O)cc(-c4cccnc4)oc23)cc1OC | inactive |  |
| Cn1ncc2c(C(=O)NCCc3ccc(Cl)cc3)cc(-c3ccc([S+](C)(=O)[O-])cc3)nc21 | inconclusive: 3.55 µM [inhibitor, full curve, poor fit] |  |
| O=C(C1CCCN(C2CCN(c3nnnn3-c3ccccc3)CC2)C1)N1CCCC1 (stereo unspecified) | inconclusive: 31.6 µM [inhibitor, single point] |  |
| CCOc1ccc(NC(=O)CC2C(=O)N(c3ccc(C)cc3)C(=O)N2Cc2ccc(OC)cc2)cc1 (stereo unspecified) | inactive |  |
| CCOc1ccc(NC(=O)c2c(NC(=O)c3ccccc3Br)sc3c2CCC(C)C3)cc1 (stereo unspecified) | inconclusive: 17.8 µM [inhibitor, partial curve, poor fit] |  |
| CCCCCc1ccc(-c2ccc(-c3ccc(C#N)cc3)nc2)cc1 | inactive |  |
| CCCCOc1ccc(-c2nc(C3CC(=O)N(c4ccc(OC)cc4)C3)no2)cc1 (stereo unspecified) | inconclusive: 22.4 µM [inhibitor, single point] |  |

From PubChem BioAssay AID1347165 (National Center for Advancing Translational Sciences (NCATS), 2019)
